# Source: PubChem BioAssay AID588689 (Southern Research Specialized Biocontainment Screening …, 2011)
# The whole screen tested about 340,000 compounds, of which about 1,000 (0.29%) were called active. This list was built around the results that the source calls inconclusive (neither active nor inactive); the mix of calls is not that of the screen. No stated cut-off is given here; in the data, inconclusive means inhibition above about 29% without an active follow-up result; inactive means below that.
# Target: Genome polyprotein (Dengue virus type 2 (strain 16681-PDK53)) (UniProt P29991)
# Experiment: Dengue-2 NS5 methyltransferase inhibitors, primary screen, biochemical, confirmation dose response (AID 588689)
# Conditions: Dengue-2 NS5 methyltransferase capping enzyme assay, at 25 µM, stronger effect = higher value
row,Compound,inhibition
1,Cc1ccc(C)c(N(CC(=O)N/N=C/c2ccc(-c3ccc([N+](=O)[O-])cc3)o2)S(=O)(=O)c2ccccc2)c1,inconclusive: 47.1%
2,Cc1ccc(/C=C2/SC(=O)N(CC(=O)N3CCOCC3)C2=O)s1,inconclusive: 48.1%
3,CC1=NOC(=O)/C1=C/c1ccc(O)cc1,inactive: 33.3%
4,CC1CC=C2C(C#N)=C(N)C(C#N)(C#N)C(c3cccs3)C2C1 (stereo not given),inconclusive: 67.6%
5,COc1ccc2nc3ccccc3nc2c1NC(=O)c1ccc(Br)cc1,inconclusive: 102%
6,CC/C(=N/NC(=O)c1ccc2c(c1)OCO2)c1ccccc1O,inactive: 3.08%
7,COc1cccc2c1C(=O)c1c(O)c3c(c(O)c1C2=O)CC(O)(C(C)=O)CC3OC1CC(N(C)C)C(O)C(C)O1 (stereo not given),inconclusive: 41.8%
8,COc1ccc(C=C2NC(=O)NC2=O)cc1O,inactive: 5.71%
9,N#CC1=C(N)C(C#N)(C#N)C(c2cccnc2)C2CC(c3ccccc3)CC=C12 (stereo not given),inconclusive: 64.5%
10,CN(C)c1ccc2nc3c(=O)[nH]c(=O)nc-3n(CC(O)C(O)C(O)CO)c2c1 (stereo not given),inconclusive: 93.9%
11,CN1C=CC2=C(C#N)C(N)C(C#N)(C#N)[C@H](c3ccccc3)[C@H]2C1 (stereo not given in full),inconclusive: 52%
12,O=c1c2c([N+](=O)[O-])cc([N+](=O)[O-])cc2sn1-c1ccc(Br)cc1,inconclusive: 46.8%
13,CCN(CC)c1ccc(/C=c2/sc3nnc(-c4ccccc4C)n3c2=O)cc1,inconclusive: 135%
14,CN(C)c1ncc(C2=C(Cl)C(=O)C(N3CCCC3)=C(Cl)C2=O)s1,inconclusive: 65.3%
15,CCCCN1C(=O)/C(=C/C=C2\Oc3ccccc3N2CC)SC1=S,inconclusive: 193%
16,CCCCC(=O)Nc1cc(Cl)ccc1C(=O)O,inactive: 1.56%
17,COc1c(CC=C(C)C)cc(C2CC(=O)c3c(O)cc(O)cc3O2)cc1CC=C(C)C (stereo not given),inactive: 1.45%
18,COc1ccc(OC)c(/C=C2\SC(=S)N(NS(=O)(=O)c3ccccc3)C2=O)c1,inactive: 43.4%
19,CN1CCN(c2oc(-c3ccccc3)nc2S(=O)(=O)c2ccccc2)CC1,inconclusive: 72.3%
20,CCc1ccc[n+](-c2[nH]c(=O)sc2/C=N/NC([S-])=Nc2ccccc2)c1,inconclusive: 122%
21,CS(=O)(=O)N1N=C(c2ccccc2)CC1c1ccc2c(c1)OCO2 (stereo not given),inconclusive: 153%
22,COc1cc([N+](=O)[O-])cc(/C=C2/SC(=S)N(Cc3ccccc3)C2=O)c1O,inconclusive: 60.7%
23,CCc1ccc(C(=O)/C=C/Nc2ccc(S(=O)(=O)Nc3cnc4ccccc4n3)cc2)cc1,inconclusive: 45.8%
24,CC(C)CC(=NNC(=O)c1ccncc1)c1cc(Cl)ccc1O,inconclusive: 40.2%
25,C=CCN1C(=O)/C(=C2/Sc3ccc(OC)cc3N2CC)SC1=S,inconclusive: 56.8%
26,O=C1c2ccccc2C(=O)C12OC2c1cccc2ccccc12 (stereo not given),inconclusive: 47.8%
27,Cc1ccc(NC2CCCN(C(=O)c3cn4cc(Cl)ccc4n3)C2)cc1C (stereo not given),inactive: 3.88%
28,COc1ccc(/C=C2\SC(=S)N(CCCC(=O)NC3CCCC3)C2=O)cc1OC,inconclusive: 40.3%

row,Compound,inhibition
1,O=C1c2cccc3c(N4CCCCC4)ccc(c23)C(=O)N1c1ccc(O)cc1,inconclusive: 153%
2,O=C(COC(=O)c1cc(-c2cccc3ccccc23)nc2ccccc12)NC1CCS(=O)(=O)C1 (stereo not given),inconclusive: 34.9%
3,Cc1cccn2c(=O)c3cc(C(=O)NCC4CCCO4)c(=N)n(CCc4ccccc4)c3nc12 (stereo not given),inconclusive: 31%
4,N#C/C(=C\c1cn(-c2ccccc2)nc1-c1cc2ccccc2o1)c1nc2ccccc2[nH]1,inconclusive: 28.5%
5,COc1ccc(-n2c(O)c(/C=C3\C=Nc4ccccc43)c(=O)[nH]c2=O)cc1,inconclusive: 75.2%
6,CN1/C(=C\C=C2/SC(=S)NC2=O)C(C)(C)c2ccccc21,inconclusive: 198%
7,NC(=O)c1ccc(=O)n(Cc2ccc(F)c(F)c2)c1,inactive: -1.31%
8,O=C1/C(=C\c2cc(Cl)c(O)c(Cl)c2)SC(=S)N1Cc1ccccc1,inconclusive: 170%
9,O=c1oc2c3c4c(cc2c(C(F)(F)F)c1CCN1CCOCC1)CCCN4CCC3,inconclusive: 130%
10,COC(=O)CNC(c1ccccc1)c1cc(Br)ccc1NS(=O)(=O)c1ccccc1 (stereo not given),inactive: -1.28%
11,CCNc1nc(-c2cc(C)n(Cc3ccco3)c2C)cs1,inconclusive: 80.2%
12,Cc1ccc(/C=C/C(=O)Nc2cccc3cccnc23)o1,inconclusive: 29.8%
13,CCc1ccc(C)[n+](CC(=O)c2cccs2)c1,inactive: -10.5%
14,Cn1cc(/C=C/c2cc[n+](C)cc2)c2cc(Cl)ccc21,inconclusive: 105%
15,Cc1ccc(C)c(-n2c3nc(=O)n(C)c(=O)c-3cc3ccccc32)c1,inactive: 0%
16,O=c1ccc2cc3c([nH]c4ccc(Br)cc43)oc-2c1O,inconclusive: 57.1%
17,Cc1ccc2c(c1)c1nc3ccccc3nc1n2C,inconclusive: 30.4%
18,O=C1NC(=O)C2(N1)C(=O)c1cccc3cccc2c13 (stereo not given),inconclusive: 71.5%
19,Cc1ccc(NC(=O)CNc2ccc(OC(C)C)cc2)c(C)c1,inconclusive: 152%
20,CC(C)c1ccc(N2C(=O)/C(=C/N(C)C)SC2=S)cc1,inconclusive: 42.7%
21,COc1cc(/C=C2/C(=O)N(c3ccc(C(=O)O)cc3)N=C2C)cc(OC)c1O,inactive: -28.1%
22,Cc1nn(CCCC(=O)NCc2ccccc2)c(C)c1[N+](=O)[O-],inactive: -1.91%
23,O=C1c2ccccc2C(=O)c2cc(N3CCCCC3)ccc21,inconclusive: 28.8%
24,CN(C)c1ccc(/C=C/C(=O)c2ccc(O)cc2)cc1,inconclusive: 43.7%
25,CN(CC(=O)Nc1cccc(F)c1)CC(=O)N1CCCCC1,inactive: 6.98%
26,COc1ccc(CCC(=O)N2CCN(C3CCCCC3)CC2)cc1,inactive: -7.21%
27,COc1ccc(C(c2c(C)n(C)n(-c3ccccc3)c2=O)c2c(C)n(C)n(-c3ccccc3)c2=O)cc1OC,inactive: -2.72%
